Measured values reported in article PMC8993864.
No constants are given. Whether binding was seen depends on the method and setting. Binding seen in cells or lysates may run through a third protein. Some binding calls cover weakened binding; strength is not graded here.

Chains of the proteins cited; added tags and fusions are not shown. Lines headed by an entry give the natural chain unless they say otherwise; changes in a name come on top.
UniProt Q96KN1: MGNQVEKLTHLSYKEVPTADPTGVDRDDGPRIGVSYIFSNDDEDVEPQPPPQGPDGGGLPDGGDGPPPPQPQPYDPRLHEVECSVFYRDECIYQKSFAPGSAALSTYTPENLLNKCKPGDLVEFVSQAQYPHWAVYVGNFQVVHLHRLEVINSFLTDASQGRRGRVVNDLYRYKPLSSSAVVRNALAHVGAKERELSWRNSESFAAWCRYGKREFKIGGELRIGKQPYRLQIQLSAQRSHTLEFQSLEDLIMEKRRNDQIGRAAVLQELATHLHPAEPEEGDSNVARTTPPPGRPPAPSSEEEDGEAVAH
UniProt P06748: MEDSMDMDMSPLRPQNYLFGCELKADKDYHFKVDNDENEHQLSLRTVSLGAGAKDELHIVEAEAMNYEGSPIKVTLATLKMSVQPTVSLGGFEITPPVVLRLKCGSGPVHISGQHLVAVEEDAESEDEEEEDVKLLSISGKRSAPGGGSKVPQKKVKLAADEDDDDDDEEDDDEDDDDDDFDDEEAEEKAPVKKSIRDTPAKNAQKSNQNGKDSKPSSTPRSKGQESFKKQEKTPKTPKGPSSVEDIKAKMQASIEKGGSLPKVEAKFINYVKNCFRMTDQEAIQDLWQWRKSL
UniProt P42771: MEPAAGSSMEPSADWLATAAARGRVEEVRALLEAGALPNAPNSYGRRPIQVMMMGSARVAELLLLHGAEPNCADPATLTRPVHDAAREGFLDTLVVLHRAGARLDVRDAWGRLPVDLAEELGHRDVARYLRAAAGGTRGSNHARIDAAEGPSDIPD

Tests used:
[1] = target: FLAG-FAM84B (pCMV-FLAG-FAM84B) (UniProt Q96KN1); assay: co-IP; exogenous (transfected) FLAG-FAM84B with HA-tagged NPM1 full length or deletion mutants; 1 mg lysate protein with antibody and Protein A/G plus-agarose overnight at 4 °C; IP anti-FLAG, blot anti-HA; anti-IgG as negative control
[2] = target: FAM84B of the co-IP with CDKN2A (Fig. 6A) (UniProt Q96KN1); assay: co-IP; CDKN2A with FAM84B and with NPM1 in cells; cell line, antibodies of the IP and whether endogenous or transfected not stated
[3] = target: NPM1 of the co-IP with CDKN2A (Fig. 6B) (UniProt P06748); assay: as above
[4] = target: GST-FAM84B-FL (pGEX-5X-1) (UniProt Q96KN1); assay: pull-down; 50 µg purified GST fusion protein immobilised on 20 µl GSH-sepharose, PBS-T binding buffer (PBS, pH 7.4, 1% Tween 20); incubated overnight at 4 °C with 5 µg NPM1 product (in vitro translation; pCMV-NPM1-HA transfected, 293 T cells); blots anti-GST, anti-HA; only the target purified
[5] = target: FAM84B, endogenous (human (endogenous in the paper's cell lines; line not stated)) (UniProt Q96KN1); assay: co-IP; endogenous proteins; 1 mg lysate protein with antibody and Protein A/G plus-agarose overnight at 4 °C; IP anti-FAM84B, blot anti-NPM1; anti-IgG as negative control

Substance	binding [1]	further results
HA-tagged NPM1-1-117aa (from UniProt P06748 1-117) (domain or fragment)	no binding	–
HA-tagged NPM1-1-188aa (from UniProt P06748 1-188) (domain or fragment)	no binding	–
CDKN2A (from UniProt P42771 1-156)	–	binding [2]: binds; binding [3]: binds
NPM1-HA (pCMV-NPM1-HA) of the GST pull-down (from UniProt P06748 1-294)	–	binding [4]: binds
NPM1, endogenous (from UniProt P06748 1-294)	–	binding [5]: binds
HA-tagged NPM1-118-294aa (from UniProt P06748 118-294) (domain or fragment)	binds	–
HA-tagged NPM1 full length (NPM1-FL) (from UniProt P06748 1-294)	binds	–
HA-tagged NPM1-118-188aa (from UniProt P06748 118-188) (domain or fragment)	no binding	–
